# The supplement of paper PMC11417369
# ± gives the standard deviation of the averaged measurements. Some of the results follow.
# Test system: PfAP2-EXP AP2 domain (GST-tagged)
# Experiment: gcPBM binding intensity (ln(normalized median fluorescence intensity)); higher = stronger DNA binding
# How it was run: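 Each value is the highest Masliner-normalised natural-log median intensity across replicate spots of either orientation of a probe. The probes were primer-extended double-stranded 36-bp intergenic genomic sequences on an Agilent 4 × 180k array, alongside negative controls, exposed for 1 h to GST-tagged P. falciparum DNA-binding domains expressed in E. coli. Bound protein was picked up with Alexa488 anti-GST antibody and scanned at 488 nm.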
row,Sequence,gcPBM binding intensity (ln)
1,ATTTGCAGTATTTCGGAACACACAAACATAAATATG [CACACA_site8726],8.49 ± 0.35
2,AAATATATTTCACGCACACACACCCCAAATAAATTT [CACACA_site3820],9.05 ± 0.52
3,TATTCCTATAAAAAAACACACACATATAAATATATA [CACACA_site8727],8.52 ± 0.42
4,AAGTATTTTTTTACATGTACATATATATATATATAT [XGTACX_site5065],10.2 ± 0.26
5,AAATAGATAAGTAGGACACACATATATATATATTAA [CACACA_site1862],8.79 ± 0.46
6,ATATTTCAAAATGAAAGTACATATAAAAATTATACA [XGTACX_site3787],8.31 ± 0.29
7,CAAAAACATACCTACACACACAATATGTATTTATAA [CACACA_site5862],8.34 ± 0.42
8,AAATGAATATTCATAGTGCAATATATAAATGAAAAT,9.205 ± 0.078
9,TTTAATTATTAGTGTGCACACAACTATGAGTTTTTA [CACACA_site8997],8.68 ± 0.29
10,AATTACATTCAATTCTGTACTAATAGTAATTCAAAA [XGTACX_site7419],8.47 ± 0.35
11,AATTTTGTTTAGCACACACACATACATACATACATA [CACACA_site5707],8.91 ± 0.3
12,TTTAATTTATATTTTGTGCACATCTTATTATATATA [GTGCAC_site9630],9.135 ± 0.049
13,TATAATATTAATGACTGTACTCATACGTATATTTAT [XGTACX_site5493],8.62 ± 0.4
14,CCCATTTTGACAAAAAGTACAAGTTCAGGTTTTATA [XGTACX_site1532],8.53 ± 0.43
15,AAAAATTAAAATATTATAGTTGAAACTTTTATAAAT [TGCATGCA_negctrl_site454],8.02 ± 0.42
16,TTTCTCTTCTAAACATGTACAAAAATACATACATAT [XGTACX_site1365],8.87 ± 0.41
17,ATATATATATATATATGTACATACATACATAGAACT [XGTACX_site2214],10.4 ± 0.3
18,TCCCATTTATTATGGTGTACAATTAATTAAACATAA [XGTACX_site750],8.54 ± 0.17
19,TATATTTATTCCTGTTGTACTTTATATTATTTTTTT [XGTACX_site1415],9.14 ± 0.32
20,ACATATTAATTATTATGACATACATATCAGTTATTA [TGCATGCA_negctrl_site126],8.38 ± 0.27
21,TATATTATTTTATATTGTACATACCAAATATTATAT [XGTACX_site1693],8.54 ± 0.3
22,AGAAAAATAAACAAATGTACAAATTATTACTATATA [XGTACX_site1087],8.53 ± 0.43
23,CATGTGATAATGATTAGTACATAAACAAAAATATAT [XGTACX_site5866],8.82 ± 0.38
24,TAAAATATAGAAAATTTTATTAAATATAAAAAAATA [CACACA_negctrl_site1441],8.09 ± 0.36
25,AAAAATATATATTCAGTGCATATAACAAAAATTATA [GTGCAC_site9794],8.56 ± 0.2
